Results as given in PubChem BioAssay AID588453 (National Center for Advancing Translational Sciences (NCATS), 2011).
In all, about 390,000 compounds went through this assay and about 4,000 (1%) were called active. Inconclusive results, whose numbers are uncertain, are shown with a selection of clear calls. Calls come from the whole dose curve; as a rule, active = well fitted inhibition curve with a large enough effect; inconclusive = small, poorly fitted or top-dose-only effect; inactive = no such curve, though single readings can be large or run the other way. Potencies of inconclusive entries are doubtful fits and often do not repeat.

Each molecule was assayed against Thioredoxin reductase 1, cytoplasmic (Rattus norvegicus) (UniProt O89049) (assay: qHTS Assay for Inhibitors of Mammalian Selenoprotein Thioredoxin Reductase 1 (TrxR1): qHTS). Conditions: recombinant rTrxR1, NADPH fluorescence consumption, selenite substrate; series mostly up to 114 µM; activity change, negative = inhibition: at the top concentration.
Method in brief: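 Rat TrxR1 (90 nM in the dispensed reagent) was pre-reduced with 400 uM NADPH for 5 min at room temperature, then incubated with compound for 15 min. After 400 uM selenite was added, NADPH fluorescence (Ex 340/Em 450 nm) was followed for 8 min.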
% is set by controls: 0 for no effect and ±100 for the full control effect; potency is the fitted concentration of half-maximal effect; tags give direction and shape of the fitted curve.
Note: nearly all actives have a fitted effect of over 65% in size.

UniProt O89049, sequence (O89049 whole entry, looked up): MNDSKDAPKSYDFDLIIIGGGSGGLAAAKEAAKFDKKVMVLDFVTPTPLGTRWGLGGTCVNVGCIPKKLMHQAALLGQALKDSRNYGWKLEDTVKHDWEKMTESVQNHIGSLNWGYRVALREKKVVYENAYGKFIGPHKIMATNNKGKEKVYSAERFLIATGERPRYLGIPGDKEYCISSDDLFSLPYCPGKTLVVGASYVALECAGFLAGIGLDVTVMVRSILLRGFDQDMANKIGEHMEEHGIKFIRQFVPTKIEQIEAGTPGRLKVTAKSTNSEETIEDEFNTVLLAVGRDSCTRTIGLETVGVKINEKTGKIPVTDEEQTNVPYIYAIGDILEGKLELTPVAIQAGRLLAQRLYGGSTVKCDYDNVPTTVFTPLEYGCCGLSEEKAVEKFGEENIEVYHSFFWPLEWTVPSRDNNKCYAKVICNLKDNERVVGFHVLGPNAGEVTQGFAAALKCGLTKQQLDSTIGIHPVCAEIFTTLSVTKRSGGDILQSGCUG

**Q.** Which “activity change, negative = inhibition” value does the source give for `O=C(CSc1ccc(Br)cc1)NC1CCS(=O)(=O)C1` (stereo not drawn) here?
**A.** inactive: 33.5%

**Q.** For `COCCN1Cc2cccc(C(=O)NC(C)CCc3ccco3)c2C1=O` (stereo not drawn), which Potency is on record?
**A.** inconclusive: 79.4 µM [inhibitor, partial curve, poor fit]

**Q.** How did the Potency turn out when `CCC(=O)NC(c1ccccc1)c1nc2ccccc2[nH]1` (stereo not drawn) was run?
**A.** inconclusive: 89.1 µM [inhibitor, single point]

**Q.** For `COc1ccc(-c2c3c([nH]c(=S)c2C#N)CCC3)cc1`, which Potency is on record?
**A.** inconclusive: 11.2 µM [inhibitor, partial curve]

**Q.** How did the “activity change, negative = inhibition” value turn out when `Cc1cccc(C(=O)O)c1[N+](=O)[O-]` was run?
**A.** inactive: 23.2%

**Q.** Which Potency does the source give for `COCCSc1nc(N)c2c3c(sc2n1)CN(C)CC3` here?
**A.** inconclusive: 100 µM [inhibitor, single point]

**Q.** `COC(=O)c1ccc(CSc2ccc3nnc(-c4ccccc4)n3n2)o1` was tested. Which Potency did it give?
**A.** inconclusive: 89.1 µM [inhibitor, single point]

**Q.** Which Potency does the source give for `C/C=C(/C)C(=O)O[C@@H]1c2c(ccc3ccc(=O)oc23)OC(C)(C)[C@@H]1OC(C)=O` here?
**A.** inconclusive: 56.2 µM [inhibitor, partial curve]

**Q.** With `COC(=O)Cc1ccc(NC(=S)Nc2ccccn2)cc1` as the molecule, how does the Potency read?
**A.** inconclusive: 89.1 µM [inhibitor, single point]

**Q.** With `c1ccc(-c2ccn3nnnc3n2)cc1` as the molecule, how does the Potency read?
**A.** inconclusive: 25.1 µM [inhibitor, single point]

**Q.** How did the Potency turn out when `C=C(C)C1Cc2cc3ccc(=O)oc3cc2O1` (stereo not drawn) was run?
**A.** inconclusive: 89.1 µM [inhibitor, single point]

**Q.** `O=C(CCS(=O)(=O)c1ccccc1)Nc1nc2cc3c(cc2s1)OCO3` was tested. Which Potency did it give?
**A.** inconclusive: 20 µM [inhibitor, partial curve, poor fit]

**Q.** How did the “activity change, negative = inhibition” value turn out when `O=C(NCc1ccccc1Cl)C1=Cc2cc(Br)ccc2OC1` was run?
**A.** inactive: 2.89% [at 57.1 µM]

**Q.** With `CC(=O)Nc1cccc(-c2nnc(SCC(=O)c3cc([N+](=O)[O-])ccc3Cl)o2)c1` as the molecule, how does the “activity change, negative = inhibition” value read?
**A.** inactive: -10.8%

**Q.** How did the “activity change, negative = inhibition” value turn out when `CCCc1nc(SCC(=O)N2CCc3ccccc3C2)c2ccccc2n1` was run?
**A.** inactive: 11.7% [at 57.1 µM]

**Q.** How did the Potency turn out when `COC(=O)CN1C(C(=O)c2ccccc2)=C(OC(=O)c2ccccc2)c2ccccc2S1(=O)=O` was run?
**A.** inconclusive: 14.1 µM [inhibitor, partial curve, poor fit]

**Q.** For `CCCN1C(C(=O)c2ccccc2)=C(OC(=O)COc2ccc(C)cc2)c2ccccc2S1(=O)=O`, which Potency is on record?
**A.** inconclusive: 14.1 µM [inhibitor, full curve]

**Q.** `CC(C)Cn1cnc2sc3c(c2c1=N)CCCC3` was tested. Which “activity change, negative = inhibition” value did it give?
**A.** inactive: -8.94%

**Q.** Which Potency does the source give for `O=C(c1ccc(S(=O)(=O)c2ccc(F)cc2)c([N+](=O)[O-])c1)N1CCCCCC1` here?
**A.** inconclusive: 50.1 µM [inhibitor, partial curve, poor fit]

**Q.** Which Potency does the source give for `CCN(CC)CCN(C(=O)CCOc1ccccc1)c1nc2ccc(F)cc2s1` here?
**A.** inconclusive: 44.7 µM [inhibitor, partial curve, poor fit]

**Q.** With `Cn1c(C(=O)N2CCN(c3ncccn3)CC2)cc2c(=O)n(C)c3ccccc3c21` as the molecule, how does the “activity change, negative = inhibition” value read?
**A.** inactive: 14.3%

**Q.** Which Potency does the source give for `COc1ccc(-c2nc(CS(=O)CC(=O)NCc3ccco3)c(C)o2)cc1OC` (stereo not drawn) here?
**A.** inconclusive: 17.8 µM [inhibitor, partial curve, poor fit]

**Q.** `O=S(=O)(Nc1ccccc1N1CCCCC1)c1ccc(Cl)s1` was tested. Which “activity change, negative = inhibition” value did it give?
**A.** inactive: -12.8%

**Q.** Which Potency does the source give for `CCNc1nc(NC(C)C)nc(OCCNS(=O)(=O)c2cc(C)ccc2C)n1` here?
**A.** inconclusive: 70.8 µM [inhibitor, single point]

**Q.** How did the Potency turn out when `Cc1ccc(OCc2cc(C(=O)N3CCN(CC(=O)NC(C)C)CC3)no2)cn1` was run?
**A.** inconclusive: 79.4 µM [inhibitor, partial curve, poor fit]

**Q.** With `CN(Cc1cnccn1)C(=O)CC1C(=O)NCCN1Cc1ccc(F)cc1Cl` (stereo not drawn) as the molecule, how does the Potency read?
**A.** inconclusive: 89.1 µM [inhibitor, single point]

**Q.** With `CCn1c(SCC(=O)N2CCC(C)CC2)nnc1-c1ccco1` as the molecule, how does the Potency read?
**A.** inconclusive: 44.7 µM [inhibitor, partial curve, poor fit]

**Q.** Which Potency does the source give for `O=C(NCC(c1cccnc1)N1CCOCC1)c1ccco1` (stereo not drawn) here?
**A.** inconclusive: 28.2 µM [inhibitor, full curve]

**Q.** How did the Potency turn out when `CCCCC(=O)Nc1ccc(C(=O)N2CCN(c3ccccc3OC)CC2)cc1` was run?
**A.** inconclusive: 12.6 µM [inhibitor, full curve]

**Q.** For `O=C(Nc1ccc2oc(-c3cccnc3)nc2c1)c1ccco1`, which Potency is on record?
**A.** inconclusive: 44.7 µM [inhibitor, single point]

**Q.** For `CCOc1ccc(N(CC)C(=O)Cn2cnc3sc(C)c(S(=O)(=O)N4CCN(c5ncccn5)CC4)c3c2=O)cc1`, which “activity change, negative = inhibition” value is on record?
**A.** inactive: 19.9%

**Q.** `CC(C)CCNC(=O)c1ccc2nc(Cc3ccccc3)oc2c1` was tested. Which “activity change, negative = inhibition” value did it give?
**A.** inactive: 23.8% [at 57.1 µM]

**Q.** For `O=C(O)c1ccc(NN=CC2=C(N3CCOCC3)/C(=C/c3ccccc3)CC2)cc1`, which Potency is on record?
**A.** inconclusive: 56.2 µM [inhibitor, single point]

**Q.** Which Potency does the source give for `CS(=O)(=O)N1CCC(Oc2cccc(C(=O)NCCCC3CCCC3)c2)CC1` here?
**A.** inconclusive: 89.1 µM [inhibitor, single point]

**Q.** Which Potency does the source give for `Clc1ccc(N2N=C(c3cccs3)CC2c2ccco2)cc1` (stereo not drawn) here?
**A.** inconclusive: 39.8 µM [inhibitor, single point]

**Q.** `COC(=O)CCC(=O)NC(=S)Nc1cc(Cl)ccc1Cl` was tested. Which Potency did it give?
**A.** inconclusive: 11.2 µM [inhibitor, partial curve, poor fit]

**Q.** How did the Potency turn out when `Cc1cccc(C)c1Nc1nnc(SC/C(O)=C(\C#N)c2nc3ccccc3[nH]2)s1` was run?
**A.** inconclusive: 35.5 µM [inhibitor, partial curve, poor fit]

**Q.** For `CC(=O)Nc1ccc(S(=O)(=O)NC2=NCN(c3cccc([N+](=O)[O-])c3)CN2)cc1`, which “activity change, negative = inhibition” value is on record?
**A.** inactive: 16.4%

**Q.** How did the Potency turn out when `COc1cccc(OCc2nnc(SCC(=O)NCc3ccco3)n2C)c1` was run?
**A.** inconclusive: 10 µM [inhibitor, full curve]

**Q.** Which “activity change, negative = inhibition” value does the source give for `Cc1ccc(OCCNc2ccc(C(F)(F)F)cc2[N+](=O)[O-])cc1` here?
**A.** inactive: 6.92% [at 57.1 µM]

**Q.** `COc1ccc(-c2c(C)nc(N)nc2-c2ccc(OC)cc2O)cc1` was tested. Which “activity change, negative = inhibition” value did it give?
**A.** inactive: 7.62% [at 57.1 µM]

**Q.** `O=C(Cn1c(=O)c2c(ncn2Cc2ccccc2)n(Cc2ccccc2)c1=O)N1CCc2ccccc21` was tested. Which Potency did it give?
**A.** inconclusive: 3.16 µM [inhibitor, single point]

**Q.** Which “activity change, negative = inhibition” value does the source give for `COC(=O)c1sccc1NC(=O)CC1C(=O)NCCN1C(=O)c1ccc(N(C)C)cc1` (stereo not drawn) here?
**A.** inactive: 6.44% [at 57.1 µM]

**Q.** With `O=C(O)CN1C(=O)/C(=C\c2cccc(OC(=O)c3ccco3)c2)SC1=S` as the molecule, how does the Potency read?
**A.** inconclusive: 56.2 µM [inhibitor, partial curve, poor fit]

**Q.** For `CCCc1cc(C(F)(F)F)c(C#N)c(=O)[nH]1`, which Potency is on record?
**A.** inconclusive: 70.8 µM [inhibitor, single point]

**Q.** For `COc1ccc(OCC(=O)NNC(=S)NC(=O)c2ccc(Br)o2)cc1`, which Potency is on record?
**A.** inconclusive: 50.1 µM [inhibitor, partial curve]

**Q.** How did the Potency turn out when `COc1cccc(Nc2nc(CC(C)=O)ns2)c1` was run?
**A.** inconclusive: 4.47 µM [inhibitor, full curve, poor fit]

**Q.** With `COc1ccc(NC(=O)CNC(=O)Cn2ccc3ccccc3c2=O)cc1OC` as the molecule, how does the “activity change, negative = inhibition” value read?
**A.** inactive: 10.5%

**Q.** `O=C(Nc1ccc2c(c1)OCO2)NC1(C(F)(F)F)Oc2ccccc2O1` was tested. Which Potency did it give?
**A.** inconclusive: 44.7 µM [inhibitor, partial curve, poor fit]

**Q.** With `CCCCCCCCN1[C@@H](CC(=O)O)c2cc(C(F)(F)F)ccc2S1(=O)=O` as the molecule, how does the Potency read?
**A.** inactive

**Q.** How did the Potency turn out when `CCc1nnc(SCC(=O)N2CCCC(N3CCN(c4ccccc4C)CC3)C2)o1` (stereo not drawn) was run?
**A.** inconclusive: 70.8 µM [inhibitor, single point]

**Q.** Which Potency does the source give for `O=C(NCC1CCCCC1)C1(CC2CC(c3cccc(Br)c3)=NO2)CCNCC1` (stereo not drawn) here?
**A.** inconclusive: 89.1 µM [inhibitor, single point]

**Q.** How did the Potency turn out when `S=C(NN=Cc1ccccn1)N(Cc1ccccn1)Cc1ccccn1` was run?
**A.** inconclusive: 3.16 µM [inhibitor, full curve, poor fit]

**Q.** With `COC(=O)c1ccc(N2C(=O)CC(Sc3n[nH]c(C)n3)C2=O)cc1` (stereo not drawn) as the molecule, how does the Potency read?
**A.** active: 12.6 µM

**Q.** `COC(=O)c1[nH]c(C)c(/C(O)=C2\C(=O)C(=O)N(CCN(C)C)C2c2ccco2)c1C` (stereo not drawn) was tested. Which Potency did it give?
**A.** inconclusive: 50.1 µM [inhibitor, partial curve, poor fit]

**Q.** For `CCc1ccc(S(=O)(=O)c2nnn3c2nc(N(CC)Cc2ccccc2)c2cc(Cl)ccc23)cc1`, which “activity change, negative = inhibition” value is on record?
**A.** inactive: 45.6%

**Q.** How did the Potency turn out when `Cc1cc(C)c2nc(N3CCCN(C(=O)c4ccco4)CC3)c(C#N)cc2c1` was run?
**A.** active: 10 µM

**Q.** `CCn1c(=O)c([N+](=O)[O-])c(Cl)c2ccccc21` was tested. Which Potency did it give?
**A.** active: 2.51 µM

**Q.** `COc1ccccc1C(c1nnnn1CCc1ccccc1)N1CCCCCC1` (stereo not drawn) was tested. Which Potency did it give?
**A.** inconclusive: 44.7 µM [inhibitor, partial curve, poor fit]

**Q.** Which “activity change, negative = inhibition” value does the source give for `O=C(CCCOc1ccccc1)N1CCN(S(=O)(=O)c2ccccc2)CC1` here?
**A.** inactive: 17.6%

**Q.** For `Cc1cccc(C(=O)Nc2ccc(OCc3cc(=O)n4ccc(C)cc4n3)cc2)c1`, which “activity change, negative = inhibition” value is on record?
**A.** inactive: 8.34% [at 57.1 µM]

**Q.** How did the Potency turn out when `Cc1ccc(CNCC2CCCO2)o1` (stereo not drawn) was run?
**A.** inconclusive: 50.1 µM [inhibitor, partial curve]

**Q.** With `COC(=O)c1ccc(CSc2nnc(SCc3ccc(C(=O)OC)o3)s2)o1` as the molecule, how does the Potency read?
**A.** inconclusive: 25.1 µM [inhibitor, single point]

**Q.** For `CCC(C)NC(=O)/C(=C/c1ccco1)c1ccccc1` (stereo not drawn), which Potency is on record?
**A.** inconclusive: 35.5 µM [inhibitor, partial curve]

**Q.** With `CN1CCN(c2nc3cc(C(F)(F)F)ccc3n3cccc23)CC1` as the molecule, how does the Potency read?
**A.** inconclusive: 33.6 µM [inhibitor, partial curve]

**Q.** How did the Potency turn out when `COc1ccccc1Nc1cc(C(=O)NCCCN(C)C2CCCCC2)c2ccccc2n1` was run?
**A.** inconclusive: 89.1 µM [inhibitor, single point]

**Q.** Which “activity change, negative = inhibition” value does the source give for `O=C(c1cncc(Br)c1)N1CCN(S(=O)(=O)c2ccccc2C(F)(F)F)CC1` here?
**A.** inactive: -1.15% [at 57.1 µM]

**Q.** For `Cc1ccc(C(=O)NC(=S)Nc2ccccc2N2CCOCC2)cc1C`, which Potency is on record?
**A.** inconclusive: 50.1 µM [inhibitor, single point]
